For this data set, the system named is CCRIS mutagenicity, Ames/micronucleus/aberration tests. The experiment in a line: CCRIS mutagenicity studies.

“Also recorded” adds a separate entry of the source. The source holds more than one record for some entries. They are shown here; other results are not. How the calls were made is not given here. There may be further records. The values listed for one entry differ, and nothing given here explains why; some may be repeats, others may stem from another dose, organism or construct than stated. Marks in square brackets tell the records apart. The letters are not those of the source and start again with each entry. Counts like (3×) say how often a value occurs here.

In the case of `CC(C)C#N`, the mutagenic call was “inactive; negative. weak ploidy at highest dose only; also recorded: inactive; negative (2×)” (End Point: In vitro chromosomal aberrations, Test System: Chinese hamster lung (CHL/IU) cells, Metabolic Activation: None); “inactive; negative; also recorded: active; positive (results of 2 experiments)” (Test System: Ames Salmonella typhimurium, Strain/Indicator: TA98, Metabolic Activation: None, Method: Preincubation); “inactive; negative; also recorded: active; positive (results of 2 experiments)” (Test System: Ames Salmonella typhimurium, Strain/Indicator: TA98, Metabolic Activation: Rat, Liver, S9, Sodium phenobarbital and 5,6-benzoflavone (10%), Method: Preincubation); “active; positive; also recorded: inactive; negative (results of 2 experiments)” (Test System: Ames Salmonella typhimurium, Strain/Indicator: TA1535, Metabolic Activation: Rat, Liver, S9, Sodium phenobarbital and 5,6-benzoflavone (10%), Method: Preincubation); “active; positive (2×); also recorded: active; positive (*growth inhibition observed)” (Test System: Ames Salmonella typhimurium, Strain/Indicator: TA1537, Metabolic Activation: Rat, Liver, S9, Sodium phenobarbital and 5,6-benzoflavone (10%), Method: Preincubation).
As to `Nc1ccc(N)cc1`, the mutagenic call by setting is: (End Point: In vitro micronucleus, Test System: Human lymphocytes, Metabolic Activation: None) “inactive; negative and active; positive”; (Test System: AMES SALMONELLA TYPHIMURIUM, Strain/Indicator: TA98, Metabolic Activation: RAT, LIVER, S-9, AROCLOR 1254, Method: PREINCUBATION) “active; positive [study A] and inactive; negative [study B]”; (Test System: AMES SALMONELLA TYPHIMURIUM, Strain/Indicator: TA98, Metabolic Activation: RAT, LIVER, S-9, AROCLOR 1254, Method: STANDARD PLATE) “active; positive [study A] and inactive; negative [study B]”; (Test System: E.COLI, Strain/Indicator: WP2UVRA, Metabolic Activation: NONE, Method: PREINCUBATION) “inactive; negative and active; positive”.
Take `CCC1CCC(CCC(=O)[O-])C1.CCC1CCC(CCC(=O)[O-])CC1.[Cu+2]` (stereo not given): the mutagenic call (Test System: MOUSE LYMPHOMA, Strain/Indicator: L5178Y (TK+/TK-), Metabolic Activation: NONE, Method: SUSPENSION/PLATE) was “active; positive. reevaluation of results: positive [study A]; also recorded: inactive; negative. reevaluation of results: positive [study B]”.

For the origin of these results see PubChem BioAssay AID1259407 (Chemical Carcinogenesis Research Information System (CCRIS), 2018).
